# Measurements reported in the supplement of paper PMC8728848.
# Some of the results follow.
# B1: Pwp3 (Candida glabrata) (protein)
# chain: MGSSHHHHHHSSGLVPRGSHMASKNPVDFTTVCQFPDNFSKKPGFLATTARLGLWITGNSYKELLNYPGTFTLTTQQASTTTPNIQLRGTDLFTTIYGLTVYPLYLLVELQGYFVPTQSGMYTFSLTGSDDAAIIFIGNPSTFPCDAFKTWPQATANDITVTDSINPSRTLYMVKGVAYPLRIAYYNGLGNGVLNAAFTDPSGTKRTDWNGYIWQYDQCSTCTYK
# Columns and labels:
# Assay in all cases: glycan array binding signal (z-score within array); higher = stronger binding
# Settings in all cases: glycan notation: IUPAC condensed, linker removed
# [1] = target: Glc(b1-6)Glc
# How it was run: (§1)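 Glycan array data came from 3228 arrays in the Consortium for Functional Glycomics database, and only arrays with an available protein sequence were kept. Glycan names were put into IUPAC-condensed notation, and columns mapping to the same glycan were averaged. The binding signal is a within-array Z-score, averaged across arrays of one protein sequence run at different concentrations or buffers and across linkers. A negative Z-score can be read as non-binding.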
# [2] = target: GlcA(b1-3)Gal
# How it was run: as §1
# [3] = target: GlcA(b1-3)GlcNAc
# How it was run: as §1
# [4] = target: GlcA(b1-6)Gal
# How it was run: as §1
# [5] = target: GlcA3S(b1-3)Gal(b1-4)GlcNAc(b1-2)Man
# How it was run: as §1
# [6] = target: GlcA3S(b1-3)Gal(b1-4)GlcNAc(b1-3)Gal(b1-4)Glc
# How it was run: as §1
# [7] = target: GlcNAc(a1-3)Gal(b1-4)GlcNAc
# How it was run: as §1
# [8] = target: GlcNAc(a1-4)Gal(b1-3)GlcNAc
# How it was run: as §1
# [9] = target: GlcNAc(a1-4)Gal(b1-4)GalNAc
# How it was run: as §1
# [10] = target: GlcNAc(a1-4)Gal(b1-4)GlcNAc
# How it was run: as §1
# [11] = target: GlcNAc(a1-4)Gal(b1-4)GlcNAc(b1-3)Gal(b1-4)Glc
# How it was run: as §1
# [12] = target: GlcNAc(a1-4)Gal(b1-4)GlcNAc(b1-3)Gal(b1-4)GlcNAc
# How it was run: as §1
# [13] = target: GlcNAc(a1-4)Gal(b1-4)GlcNAc(b1-3)Gal(b1-4)GlcNAc(b1-3)Gal(b1-4)GlcNAc
# How it was run: as §1
# [14] = target: GlcNAc(a1-4)Gal(b1-4)GlcNAc(b1-3)Gal(b1-4)[Fuc(a1-3)]GlcNAc(b1-3)Gal(b1-4)[Fuc(a1-3)]GlcNAc
# How it was run: as §1
# [15] = target: GlcNAc(a1-6)Gal(b1-4)GlcNAc
# How it was run: as §1
# [16] = target: GlcNAc(b1-2)Gal(b1-3)GalNAc
# How it was run: as §1
# [17] = target: GlcNAc(b1-2)Man(a1-3)[GlcNAc(b1-2)Man(a1-6)]Man(b1-4)GlcNAc(b1-4)GlcNAc
# How it was run: as §1
# [18] = target: GlcNAc(b1-2)Man(a1-3)[GlcNAc(b1-2)Man(a1-6)]Man(b1-4)GlcNAc(b1-4)[Fuc(a1-6)]GlcNAc
# How it was run: as §1
# [19] = target: GlcNAc(b1-2)Man(a1-3)[GlcNAc(b1-4)][GlcNAc(b1-2)Man(a1-6)]Man(b1-4)GlcNAc(b1-4)GlcNAc
# How it was run: as §1
# [20] = target: GlcNAc(b1-2)Man(a1-3)[GlcNAc(b1-4)][GlcNAc(b1-2)Man(a1-6)]Man(b1-4)GlcNAc(b1-4)[Fuc(a1-6)]GlcNAc
# How it was run: as §1
# [21] = target: GlcNAc(b1-2)[GlcNAc(b1-4)]Man(a1-3)[GlcNAc(b1-2)Man(a1-6)]Man(b1-4)GlcNAc(b1-4)GlcNAc
# How it was run: as §1
# [22] = target: GlcNAc(b1-2)[GlcNAc(b1-4)]Man(a1-3)[GlcNAc(b1-4)][GlcNAc(b1-2)Man(a1-6)]Man(b1-4)GlcNAc(b1-4)GlcNAc
# How it was run: as §1
# [23] = target: GlcNAc(b1-2)[GlcNAc(b1-4)]Man(a1-3)[GlcNAc(b1-4)][GlcNAc(b1-2)[GlcNAc(b1-6)]Man(a1-6)]Man(b1-4)GlcNAc(b1-4)GlcNAc
# How it was run: as §1
# [24] = target: GlcNAc(b1-2)[GlcNAc(b1-4)]Man(a1-3)[GlcNAc(b1-4)][GlcNAc(b1-2)[GlcNAc(b1-6)]Man(a1-6)]Man(b1-4)GlcNAc(b1-4)[Fuc(a1-6)]GlcNAc
# How it was run: as §1
# [25] = target: GlcNAc(b1-2)[GlcNAc(b1-6)]Man(a1-6)[GlcNAc(b1-2)Man(a1-3)]Man(b1-4)GlcNAc(b1-4)GlcNAc
# How it was run: as §1
# [26] = target: GlcNAc(b1-2)[GlcNAc(b1-6)]Man(a1-6)[GlcNAc(b1-2)Man(a1-3)]Man(b1-4)GlcNAc(b1-4)[Fuc(a1-6)]GlcNAc
# How it was run: as §1
# [27] = target: GlcNAc(b1-2)[GlcNAc(b1-6)]Man(a1-6)[GlcNAc(b1-4)][GlcNAc(b1-2)Man(a1-3)]Man(b1-4)GlcNAc(b1-4)GlcNAc
# How it was run: as §1
# [28] = target: GlcNAc(b1-3)Fuc
# How it was run: as §1
# [29] = target: GlcNAc(b1-3)Gal
# How it was run: as §1
# [30] = target: GlcNAc(b1-3)Gal(b1-3)GalNAc
# How it was run: as §1
# [31] = target: GlcNAc(b1-3)Gal(b1-4)Glc
# How it was run: as §1
# [32] = target: GlcNAc(b1-3)Gal(b1-4)GlcNAc
# How it was run: as §1
# [33] = target: GlcNAc(b1-3)Gal(b1-4)GlcNAc(b1-2)Man(a1-3)[GlcNAc(b1-3)Gal(b1-4)GlcNAc(b1-2)Man(a1-6)]Man(b1-4)GlcNAc(b1-4)GlcNAc
# How it was run: as §1
# [34] = target: GlcNAc(b1-3)Gal(b1-4)GlcNAc(b1-2)Man(a1-3)[GlcNAc(b1-3)Gal(b1-4)GlcNAc(b1-2)Man(a1-6)]Man(b1-4)GlcNAc(b1-4)[Fuc(a1-6)]GlcNAc
# How it was run: as §1
# [35] = target: GlcNAc(b1-3)Gal(b1-4)GlcNAc(b1-2)[GlcNAc(b1-3)Gal(b1-4)GlcNAc(b1-6)]Man(a1-6)[GlcNAc(b1-3)Gal(b1-4)GlcNAc(b1-2)Man(a1-3)]Man(b1-4)GlcNAc(b1-4)GlcNAc
# How it was run: as §1
# [36] = target: GlcNAc(b1-3)Gal(b1-4)GlcNAc(b1-3)Gal(b1-4)GlcNAc
# How it was run: as §1
# [37] = target: GlcNAc(b1-3)Gal(b1-4)GlcNAc(b1-3)Gal(b1-4)GlcNAc(b1-2)Man(a1-3)[GlcNAc(b1-3)Gal(b1-4)GlcNAc(b1-3)Gal(b1-4)GlcNAc(b1-2)Man(a1-6)]Man(b1-4)GlcNAc(b1-4)GlcNAc
# How it was run: as §1
# [38] = target: GlcNAc(b1-3)Gal(b1-4)GlcNAc(b1-3)Gal(b1-4)GlcNAc(b1-2)Man(a1-3)[GlcNAc(b1-3)Gal(b1-4)GlcNAc(b1-3)Gal(b1-4)GlcNAc(b1-2)Man(a1-6)]Man(b1-4)GlcNAc(b1-4)[Fuc(a1-6)]GlcNAc
# How it was run: as §1
# [39] = target: GlcNAc(b1-3)Gal(b1-4)GlcNAc(b1-3)Gal(b1-4)GlcNAc(b1-2)[GlcNAc(b1-3)Gal(b1-4)GlcNAc(b1-3)Gal(b1-4)GlcNAc(b1-6)]Man(a1-6)[GlcNAc(b1-3)Gal(b1-4)GlcNAc(b1-3)Gal(b1-4)GlcNAc(b1-2)Man(a1-3)]Man(b1-4)GlcNAc(b1-4)[Fuc(a1-6)]GlcNAc
# How it was run: as §1
# [40] = target: GlcNAc(b1-3)Gal(b1-4)GlcNAc(b1-3)Gal(b1-4)GlcNAc(b1-3)Gal(b1-4)GlcNAc(b1-2)Man(a1-3)[GlcNAc(b1-3)Gal(b1-4)GlcNAc(b1-3)Gal(b1-4)GlcNAc(b1-3)Gal(b1-4)GlcNAc(b1-2)Man(a1-6)]Man(b1-4)GlcNAc(b1-4)GlcNAc
# How it was run: as §1
# [41] = target: GlcNAc(b1-3)Gal(b1-4)GlcNAc(b1-3)Gal(b1-4)GlcNAc(b1-3)Gal(b1-4)GlcNAc(b1-2)Man(a1-3)[GlcNAc(b1-3)Gal(b1-4)GlcNAc(b1-3)Gal(b1-4)GlcNAc(b1-3)Gal(b1-4)GlcNAc(b1-2)Man(a1-6)]Man(b1-4)GlcNAc(b1-4)[Fuc(a1-6)]GlcNAc
# How it was run: as §1
# [42] = target: GlcNAc(b1-3)Gal(b1-4)GlcNAc(b1-3)Gal(b1-4)GlcNAc(b1-3)Gal(b1-4)GlcNAc(b1-2)[GlcNAc(b1-3)Gal(b1-4)GlcNAc(b1-3)Gal(b1-4)GlcNAc(b1-3)Gal(b1-4)GlcNAc(b1-6)]Man(a1-6)[GlcNAc(b1-3)Gal(b1-4)GlcNAc(b1-3)Gal(b1-4)GlcNAc(b1-3)Gal(b1-4)GlcNAc(b1-2)Man(a1-3)]Man(b1-4)GlcNAc(b1-4)[Fuc(a1-6)]GlcNAc
# How it was run: as §1
# [43] = target: GlcNAc(b1-3)Gal(b1-4)GlcNAc(b1-3)Gal(b1-4)GlcNAc(b1-3)Gal(b1-4)GlcNAc(b1-3)Gal(b1-4)GlcNAc(b1-2)Man(a1-3)[GlcNAc(b1-3)Gal(b1-4)GlcNAc(b1-3)Gal(b1-4)GlcNAc(b1-3)Gal(b1-4)GlcNAc(b1-3)Gal(b1-4)GlcNAc(b1-2)Man(a1-6)]Man(b1-4)GlcNAc(b1-4)GlcNAc
# How it was run: as §1
# [44] = target: GlcNAc(b1-3)Gal(b1-4)GlcNAc(b1-3)Gal(b1-4)GlcNAc(b1-3)Gal(b1-4)GlcNAc(b1-3)Gal(b1-4)GlcNAc(b1-2)Man(a1-3)[GlcNAc(b1-3)Gal(b1-4)GlcNAc(b1-3)Gal(b1-4)GlcNAc(b1-3)Gal(b1-4)GlcNAc(b1-3)Gal(b1-4)GlcNAc(b1-2)Man(a1-6)]Man(b1-4)GlcNAc(b1-4)[Fuc(a1-6)]GlcNAc
# How it was run: as §1
# [45] = target: GlcNAc(b1-3)Gal(b1-4)GlcNAc(b1-3)Gal(b1-4)GlcNAc(b1-3)Gal(b1-4)GlcNAc(b1-3)Gal(b1-4)GlcNAc(b1-2)[GlcNAc(b1-3)Gal(b1-4)GlcNAc(b1-3)Gal(b1-4)GlcNAc(b1-3)Gal(b1-4)GlcNAc(b1-3)Gal(b1-4)GlcNAc(b1-6)]Man(a1-6)[GlcNAc(b1-3)Gal(b1-4)GlcNAc(b1-3)Gal(b1-4)GlcNAc(b1-3)Gal(b1-4)GlcNAc(b1-3)Gal(b1-4)GlcNAc(b1-2)Man(a1-3)]Man(b1-4)GlcNAc(b1-4)[Fuc(a1-6)]GlcNAc
# How it was run: as §1
binder,measurement,setting,value
B1,glycan array binding signal (z-score),[1],-0.774
same,glycan array binding signal (z-score),[2],-1.27
same,glycan array binding signal (z-score),[3],0.04
same,glycan array binding signal (z-score),[4],0.434
same,glycan array binding signal (z-score),[5],0.527
same,glycan array binding signal (z-score),[6],-0.545
same,glycan array binding signal (z-score),[7],-0.153
same,glycan array binding signal (z-score),[8],-0.45
same,glycan array binding signal (z-score),[9],0.899
same,glycan array binding signal (z-score),[10],-0.761
same,glycan array binding signal (z-score),[11],-0.39
same,glycan array binding signal (z-score),[12],-1.24
same,glycan array binding signal (z-score),[13],-0.069
same,glycan array binding signal (z-score),[14],-0.735
same,glycan array binding signal (z-score),[15],-0.688
same,glycan array binding signal (z-score),[16],-0.581
same,glycan array binding signal (z-score),[17],-0.52
same,glycan array binding signal (z-score),[18],-0.209
same,glycan array binding signal (z-score),[19],-0.14
same,glycan array binding signal (z-score),[20],-0.195
same,glycan array binding signal (z-score),[21],-0.427
same,glycan array binding signal (z-score),[22],-0.375
same,glycan array binding signal (z-score),[23],-0.173
same,glycan array binding signal (z-score),[24],0.512
same,glycan array binding signal (z-score),[25],-0.48
same,glycan array binding signal (z-score),[26],-0.285
same,glycan array binding signal (z-score),[27],-0.216
same,glycan array binding signal (z-score),[28],0.535
same,glycan array binding signal (z-score),[29],-0.332
same,glycan array binding signal (z-score),[30],-0.399
same,glycan array binding signal (z-score),[31],-1.47
same,glycan array binding signal (z-score),[32],-0.334
same,glycan array binding signal (z-score),[33],-0.47
same,glycan array binding signal (z-score),[34],-0.546
same,glycan array binding signal (z-score),[35],3.27
same,glycan array binding signal (z-score),[36],-0.216
same,glycan array binding signal (z-score),[37],-0.047
same,glycan array binding signal (z-score),[38],-0.151
same,glycan array binding signal (z-score),[39],1.95
same,glycan array binding signal (z-score),[40],-0.514
same,glycan array binding signal (z-score),[41],0.739
same,glycan array binding signal (z-score),[42],1.66
same,glycan array binding signal (z-score),[43],-0.439
same,glycan array binding signal (z-score),[44],0.014
same,glycan array binding signal (z-score),[45],4.05
